Reference: PubChem BioAssay AID1476 (National Center for Advancing Translational Sciences (NCATS), 2009)
The whole screen tested about 200,000 compounds, of which about 4,500 (2.2%) were called active. This list was built around the results that the source calls inconclusive (neither active nor inactive); the mix of calls is not that of the screen. Calls follow the shape of the dose curve; as a rule, active = well fitted inhibition curve with a large enough effect; inconclusive = small, poorly fitted or top-dose-only effect, or effect the other way; inactive = flat fitted curve, though single readings scatter. Where the call is inconclusive, the potency comes from a doubtful curve fit.

What follows are molecules tested against Cruzipain (Trypanosoma cruzi) (UniProt P25779) (assay: qHTS Assay for Promiscuous and Specific Inhibitors of Cruzain (without detergent)). Details: purified cruzain, Z-FR-AMC fluorescence, no detergent.
UniProt P25779, sequence (P25779 whole entry, looked up): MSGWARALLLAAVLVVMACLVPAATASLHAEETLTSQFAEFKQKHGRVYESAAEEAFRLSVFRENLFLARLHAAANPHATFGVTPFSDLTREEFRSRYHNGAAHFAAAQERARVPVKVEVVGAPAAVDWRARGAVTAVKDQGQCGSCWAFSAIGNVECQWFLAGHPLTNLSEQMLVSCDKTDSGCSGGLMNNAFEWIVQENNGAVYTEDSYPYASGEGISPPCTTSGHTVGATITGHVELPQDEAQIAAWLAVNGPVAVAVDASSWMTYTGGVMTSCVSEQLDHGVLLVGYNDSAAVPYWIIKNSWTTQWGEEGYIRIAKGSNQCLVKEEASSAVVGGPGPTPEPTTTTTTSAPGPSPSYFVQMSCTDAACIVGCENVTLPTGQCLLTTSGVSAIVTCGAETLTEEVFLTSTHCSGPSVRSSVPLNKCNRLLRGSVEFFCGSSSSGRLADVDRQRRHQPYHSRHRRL
In short: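 Purified cruzain at 1.5 nM, pre-incubated 15 min with compound at room temperature in 100 mM sodium acetate pH 5.5, 5 mM DTT, 0.00005% Triton X-100. Reaction started with 2 uM Z-FR-AMC; AMC fluorescence increase over 60 s gives rate.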
Also: nearly all actives have a fitted effect of over 40% in size.
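For max response, negative = inhibition in this document: plate controls were enzyme without inhibitor for no effect and buffer without enzyme for full effect.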
Potency is read from the fitted curve at half-maximal effect; tags tell the direction and shape of the fitted curve.

SMILES	Potency	max response, negative = inhibition
COc1ccc(-n2c(SCC(=O)NCc3ccc(C)cc3)nc3n[nH]c(C)c3c2=N)cc1	inconclusive: 31.6 µM [activator, single point]	
COc1ccc(C2C=C(c3ccc(Cl)c(Cl)c3)Nc3ncnn32)cc1 (configuration not stated)	inconclusive: 25.1 µM [inhibitor, single point]	
Cc1nn(C)cc1CNC(=O)c1cnn2c1NC(c1ccc(Br)cc1)CC2C(F)(F)F (configuration not stated)	inconclusive: 25.1 µM [activator, partial curve]	
COc1ccccc1NS(=O)(=O)c1ccc(N/N=C/c2c(C)nn(-c3ccccc3)c2N2CCCC2)c([N+](=O)[O-])c1	active: 3.16 µM	
COCCOc1ccc(C(F)(F)F)cc1NC(=O)c1ccccc1F	inconclusive: 5.01 µM [activator, single point]	
Cc1cc(C)c2nc(N3CCCN(C(=O)c4cnccn4)CC3)c(C#N)cc2c1	inconclusive: 39.8 µM [activator, single point]	
O=C(COc1ccccc1)Nc1ccc2nc(SCC(=O)N3CCOCC3)sc2c1	inconclusive: 39.8 µM [activator, single point]	
CCOC(=O)c1ccc(NC(=S)NC(=O)c2nn(CC)cc2Br)cc1	inconclusive: 25.1 µM [inhibitor, single point]	
Cc1ccc(-n2ncc(C(=O)N3CCCCC3)c2C2CCN(C(=O)OC(C)(C)C)CC2)c(C)c1	inconclusive: 25.1 µM [activator, partial curve]	
CN(C)c1ccc(CNC(=O)Cn2c(=O)oc3cc(S(=O)(=O)N4CCCCCC4)ccc32)cc1		inactive: 6.17%
COc1cc(C(=O)NCc2nnc(SCC(=O)Nc3cc(C)cc(C)c3)o2)cc(OC)c1OC	inconclusive: 39.8 µM [activator, single point]	
CC(C)CN1CCCC2(CCN(C(=O)c3ccco3)CC2)C1		inactive: 7.89%
Nc1nc(=S)[nH]c2c1C1(CCCC1)Cc1ccccc1-2	inconclusive: 31.6 µM [inhibitor, single point]	
Cc1ccc(N(CC(=O)Nc2ccc(Cl)cc2)S(=O)(=O)c2cccc3nonc23)cc1	inconclusive: 39.8 µM [inhibitor, single point]	
CCOc1cc(CNC(=O)CN2CCSc3ccccc32)cc(OCC)c1OCC	inconclusive: 39.8 µM [activator, single point]	
COc1cc2ccccc2cc1-c1nnc(COc2ccccc2)o1	inconclusive: 31.6 µM [activator, partial curve]	
O=[N+]([O-])c1cccc(/C=N/Nc2cc(Cl)nc(-c3ccccc3)n2)c1	inconclusive: 39.8 µM [inhibitor, single point]	
CCc1ccc(N2CC(C(=O)Nc3ccc(C)c(S(=O)(=O)N4CCOCC4)c3)CC2=O)cc1 (configuration not stated)	inconclusive: 25.1 µM [activator, single point]	
Cc1ccc(Cl)cc1N1CCN(S(=O)(=O)c2ccc3c(c2)CCN3C(=O)C2CCC2)CC1		inactive: 3.4%
CCc1ccc(NS(=O)(=O)c2ccc3[nH]cc(C(=O)NCCCOC(C)C)c(=O)c3c2)cc1	active: 20 µM	
Cc1cc(C)n2c(=S)[nH]nc2n1		inactive: -5.62%

SMILES	Potency	max response, negative = inhibition
Cc1ccc(NC(=O)c2cnn3c2NC(c2ccccc2)=CC3c2ccccc2)cc1 (configuration not stated)	inconclusive: 20 µM [inhibitor, partial curve]	
CCN(Cc1ccccc1)C(=O)c1cnn(-c2ccc(F)cc2)c1-n1cccc1		inactive: -2.79%
O=C(O)[C@H]1C[C@@H](CP(=O)(O)O)CCN1		inactive: 6.31%
CCOc1cc(C#N)c(NC(=O)Cn2nnc(-c3ccc(C)cc3)n2)cc1OCC		inactive: 12.4%
COc1cc(OC)c2c(c1)OC(c1ccccc1)CC2=O (configuration not stated)	inconclusive: 39.8 µM [activator, single point]	
CCOc1ccc(NC(=O)c2ncoc2-c2ccco2)cc1		inactive: -16.9%
CCC/C=C(\CCC)C(NC(=O)c1ccco1)c1ccc(C(=O)OC)cc1 (configuration not stated)		inactive: 1.67%
CCCCN1C(=O)C(O)(CC(=O)c2ccc(C(C)(C)C)cc2)c2ccccc21 (configuration not stated)	inconclusive: 15.8 µM [activator, partial curve]	
O=C(CSc1nc(O)cc(=O)[nH]1)Nc1ccc2c(c1)CCC2	active: 15.8 µM	
COc1ccccc1NS(=O)(=O)c1ccc(NN=C2CCCC2)c([N+](=O)[O-])c1	inconclusive: 39.8 µM [inhibitor, single point]	
CC(=O)c1cccc(NS(=O)(=O)c2ccc(N/C=C\C(=O)c3ccc(F)cc3)cc2)c1	inconclusive: 39.8 µM [inhibitor, single point]	
CCn1c(=O)c(C(=O)NCc2ccc(OC)c(OC)c2)c(O)c2ccccc21	inconclusive: 31.6 µM [activator, single point]	
Cc1ccnc(NC(=S)NC(=O)/C=C/c2ccccc2)c1	inconclusive: 25.1 µM [inhibitor, single point]	
CCOC(=O)c1[nH]c2ccccc2c1NC(=O)c1ccc(Br)cc1		inactive: -6.02%
C=C(C(C)=O)C(O)c1cccc(OC)c1 (configuration not stated)		inactive: -3.15%
COc1cccc(-c2nn(C)c3sc(C(=O)N4CCN(c5ccccn5)CC4)cc23)c1	inconclusive: 39.8 µM [activator, single point]	
O=c1[nH]c2ccc(NCc3ccc(-c4ccc(Br)cc4)o3)cc2[nH]1	inconclusive: 3.98 µM [inhibitor, single point]	
Cc1ccc(N2C(=N)/C(=C3/Nc4ccccc4S3)C(c3ccccc3)C2=O)cc1 (configuration not stated)	inconclusive: 31.6 µM [inhibitor, single point]	
O=C(c1cc2sccc2n1Cc1ccc(F)cc1)N1CCN(c2nc3ccccc3s2)CC1	active: 12.6 µM	
CCCc1ccc(-c2cc(C(=O)Nc3ccc([N+](=O)[O-])cn3)c3ccccc3n2)cc1	active: 25.1 µM	
Cc1ccc(/C=C2\SC(=S)N(c3c(C)n(C)n(-c4ccccc4)c3=O)C2=O)cc1	inconclusive: 31.6 µM [activator, single point]	
